Experimental data: PubChem BioAssay (NCI)
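Compound exposure: 48 hours, 5 concentrations, 96-well plates. GI50 marks 50% less growth. At the TGI there is no net growth.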

test system: NCI-H322M lung; test: NCI-60 cell line screen, 48 h

**Q.** Which GI50 does the source give for CCCCCCCCCCCCC[N+](C)(C)Cc1ccccc1 here?
**A.** 2.37 µM

**Q.** What about the TGI of the same molecule?
**A.** 5.62 µM

**Q.** Which GI50 does the source give for CC(=O)OCC1OC(OC2=C(CC=C(C)C)C(=O)c3ccccc3C2=O)C(OC(C)=O)C(OC(C)=O)C1OC(C)=O (centres undefined) here?
**A.** 11.6 µM

**Q.** And the TGI?
**A.** 24.5 µM

**Q.** COC(O)C12OC3CO[Si](C(C)C)(C(C)C)O[Si](C(C)C)(C(C)C)OC3C1Oc1nc(=O)ccn12 (centres undefined) was tested. Which TGI did it give?
**A.** 30.4 µM

**Q.** Cc1ccc(S(=O)(=O)O/N=C2\CCC\C2=C/c2ccccc2)cc1 was tested. Which TGI did it give?
**A.** 28.2 µM

**Q.** What does the source list for N#CC(C#N)=C/C=C(\Sc1ccc(F)c(Cl)c1)c1ccc(Cl)cc1?
**A.** GI50: 16.2 µM; TGI: 31.9 µM

**Q.** Which results are given for CCOC(=O)c1cc(C(=O)c2ccc(Cl)cc2)n2ccc(-c3cc[n+](CC(=O)c4ccc(OC)cc4)cc3)cc12?
**A.** GI50: 1.66 µM; TGI: 3.2 µM

**Q.** For NC(=O)NN=C1C[C@H]2CCCC[C@H]2C1, which TGI is on record?
**A.** > 100 µM

**Q.** Which TGI does the source give for CN(C)CCNC(=O)c1ccc(Cl)c2c(Nc3ccc(S(=O)(=O)N=C(N)N)cc3)c3ccccc3nc12 here?
**A.** 19.9 µM

**Q.** Which TGI does the source give for CC(NC(=O)C(C)C(=O)Nc1ccc(C(F)(F)F)cc1)C(N)=O (centres undefined) here?
**A.** > 100 µM

**Q.** With CC1=C(C(=O)CC(=O)C(=O)Nc2cccc(Cl)c2C)Sc2ccccc2N1 as the molecule, how does the TGI read?
**A.** > 100 µM
